# The other results are listed elsewhere or left out. The list includes weakly bound sequences.
# Molecular target: T1, MBP-FoxP3dN (UniProt Q99JB6)
# T1 sequence: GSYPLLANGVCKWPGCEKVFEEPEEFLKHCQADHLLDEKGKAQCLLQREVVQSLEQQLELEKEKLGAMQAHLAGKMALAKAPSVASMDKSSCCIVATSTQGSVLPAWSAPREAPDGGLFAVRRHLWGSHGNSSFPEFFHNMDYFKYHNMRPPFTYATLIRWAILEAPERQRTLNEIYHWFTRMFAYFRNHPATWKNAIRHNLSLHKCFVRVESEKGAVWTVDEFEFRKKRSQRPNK
# Experiment: PD-seq (MBP pull-down with sequencing)
# Settings: 20 mM Tris-HCl pH 7.5, 100 mM NaCl, 1.5 mM MgCl2, 0.4 uM protein, 0.1 uM dsDNA library, 30 min, room temperature, amylose pull-down; high values mean tight binding; double strand, one strand shown
row,Sequence,binding signal (RPM ratio (pull-down/input))
1,GATGATTGTTCTCCCAGCTGATGAATTCAATAAGTCGAGTAAACAAATTTTCCTAATCTTTCTGTTCAAGCGCCATCTAC,0.244
2,GATGATTGTTCTCCCAGCTGATGAATTGTCTTAATCGAGTAAACAAATTTTCCTAATCTTTCTGTTCAAGCGCCATCTAC,0.358
3,GATGATTGTTCTCCCAGCTGATGAATTAAAAAACTCGAGTAAACAAATTTTCCTAATCTTTCTGTTCAAGCGCCATCTAC,0.235
4,GATGATTGTTCTCCCAGCTGATGAATTCCCACCGTCGAGTAAACAAATTTTCCTAATCTTTCTGTTCAAGCGCCATCTAC,0.235
5,GATGATTGTTCTCCCAGCTGATGAATTTCGATACTCGAGTAAACAAATTTTCCTAATCTTTCTGTTCAAGCGCCATCTAC,0.835
6,GATGATTGTTCTCCCAGCTGATGAATTCGGTCAGTCGAGTAAACAAATTTTCCTAATCTTTCTGTTCAAGCGCCATCTAC,0.269
7,GATGATTGTTCTCCCAGCTGATGAATTCGGGAACTCGAGTAAACAAATTTTCCTAATCTTTCTGTTCAAGCGCCATCTAC,0.208
8,GATGATTGTTCTCCCAGCTGATGAATTGACCCAATCGAGTAAACAAATTTTCCTAATCTTTCTGTTCAAGCGCCATCTAC,0.374
9,GATGATTGTTCTCCCAGCTGATGAATTTAGAGCCTCGAGTAAACAAATTTTCCTAATCTTTCTGTTCAAGCGCCATCTAC,0.551
10,GATGATTGTTCTCCCAGCTGATGAATTTCAAGCCTCGAGTAAACAAATTTTCCTAATCTTTCTGTTCAAGCGCCATCTAC,0.376
11,GATGATTGTTCTCCCAGCTGATGAATTTTTATTATCGAGTAAACAAATTTTCCTAATCTTTCTGTTCAAGCGCCATCTAC,0.779
12,GATGATTGTTCTCCCAGCTGATGAATTTTGCCGGTCGAGTAAACAAATTTTCCTAATCTTTCTGTTCAAGCGCCATCTAC,0.938
13,GATGATTGTTCTCCCAGCTGATGAATTCCATATTTCGAGTAAACAAATTTTCCTAATCTTTCTGTTCAAGCGCCATCTAC,0.551
14,GATGATTGTTCTCCCAGCTGATGAATTCTGACAGTCGAGTAAACAAATTTTCCTAATCTTTCTGTTCAAGCGCCATCTAC,0.458
15,GATGATTGTTCTCCCAGCTGATGAATTAGAAGGATCGAGTAAACAAATTTTCCTAATCTTTCTGTTCAAGCGCCATCTAC,0.225
16,GATGATTGTTCTCCCAGCTGATGAATTCCACGTATCGAGTAAACAAATTTTCCTAATCTTTCTGTTCAAGCGCCATCTAC,0.533
17,GATGATTGTTCTCCCAGCTGATGAATTAACGAACTCGAGTAAACAAATTTTCCTAATCTTTCTGTTCAAGCGCCATCTAC,0.224
18,GATGATTGTTCTCCCAGCTGATGAATTGCGGTAGTCGAGTAAACAAATTTTCCTAATCTTTCTGTTCAAGCGCCATCTAC,0.763
19,GATGATTGTTCTCCCAGCTGATGAATTTTCTGTCTCGAGTAAACAAATTTTCCTAATCTTTCTGTTCAAGCGCCATCTAC,0.253
20,GATGATTGTTCTCCCAGCTGATGAATTAGTCACTTCGAGTAAACAAATTTTCCTAATCTTTCTGTTCAAGCGCCATCTAC,1.66
21,GATGATTGTTCTCCCAGCTGATGAATTTAAGTGATCGAGTAAACAAATTTTCCTAATCTTTCTGTTCAAGCGCCATCTAC,0.459

row,Sequence,binding signal (RPM ratio (pull-down/input))
1,GATGATTGTTCTCCCAGCTGATGAATTGCGGTCTTCGAGTAAACAAATTTTCCTAATCTTTCTGTTCAAGCGCCATCTAC,0.807
2,GATGATTGTTCTCCCAGCTGATGAATTGCCAAATTCGAGTAAACAAATTTTCCTAATCTTTCTGTTCAAGCGCCATCTAC,0.453
3,GATGATTGTTCTCCCAGCTGATGAATTAGTCGTTTCGAGTAAACAAATTTTCCTAATCTTTCTGTTCAAGCGCCATCTAC,1.8
4,GATGATTGTTCTCCCAGCTGATGAATTGCATGCCTCGAGTAAACAAATTTTCCTAATCTTTCTGTTCAAGCGCCATCTAC,2.23
5,GATGATTGTTCTCCCAGCTGATGAATTCTTGGCCTCGAGTAAACAAATTTTCCTAATCTTTCTGTTCAAGCGCCATCTAC,0.318
6,GATGATTGTTCTCCCAGCTGATGAATTGACGCGATCGAGTAAACAAATTTTCCTAATCTTTCTGTTCAAGCGCCATCTAC,0.796
7,GATGATTGTTCTCCCAGCTGATGAATTGAGATTCTCGAGTAAACAAATTTTCCTAATCTTTCTGTTCAAGCGCCATCTAC,0.554
8,GATGATTGTTCTCCCAGCTGATGAATTGTCTGCGTCGAGTAAACAAATTTTCCTAATCTTTCTGTTCAAGCGCCATCTAC,0.546
9,GATGATTGTTCTCCCAGCTGATGAATTCCAAGACTCGAGTAAACAAATTTTCCTAATCTTTCTGTTCAAGCGCCATCTAC,0.25
10,GATGATTGTTCTCCCAGCTGATGAATTCGTAACATCGAGTAAACAAATTTTCCTAATCTTTCTGTTCAAGCGCCATCTAC,0.745
11,GATGATTGTTCTCCCAGCTGATGAATTTCGGTCTTCGAGTAAACAAATTTTCCTAATCTTTCTGTTCAAGCGCCATCTAC,0.446
12,GATGATTGTTCTCCCAGCTGATGAATTCATAGCTTCGAGTAAACAAATTTTCCTAATCTTTCTGTTCAAGCGCCATCTAC,0.449
13,GATGATTGTTCTCCCAGCTGATGAATTCAATTGCTCGAGTAAACAAATTTTCCTAATCTTTCTGTTCAAGCGCCATCTAC,2.31
14,GATGATTGTTCTCCCAGCTGATGAATTGGGCGTGTCGAGTAAACAAATTTTCCTAATCTTTCTGTTCAAGCGCCATCTAC,2.76
15,GATGATTGTTCTCCCAGCTGATGAATTCCCCTCTTCGAGTAAACAAATTTTCCTAATCTTTCTGTTCAAGCGCCATCTAC,0.259
16,GATGATTGTTCTCCCAGCTGATGAATTCGTTACGTCGAGTAAACAAATTTTCCTAATCTTTCTGTTCAAGCGCCATCTAC,0.727
17,GATGATTGTTCTCCCAGCTGATGAATTGAATTCCTCGAGTAAACAAATTTTCCTAATCTTTCTGTTCAAGCGCCATCTAC,0.478
18,GATGATTGTTCTCCCAGCTGATGAATTATGTGAATCGAGTAAACAAATTTTCCTAATCTTTCTGTTCAAGCGCCATCTAC,0.607
19,GATGATTGTTCTCCCAGCTGATGAATTATGGTGATCGAGTAAACAAATTTTCCTAATCTTTCTGTTCAAGCGCCATCTAC,0.759
20,GATGATTGTTCTCCCAGCTGATGAATTCACCAATTCGAGTAAACAAATTTTCCTAATCTTTCTGTTCAAGCGCCATCTAC,0.272
21,GATGATTGTTCTCCCAGCTGATGAATTGACTATTTCGAGTAAACAAATTTTCCTAATCTTTCTGTTCAAGCGCCATCTAC,0.498

row,Sequence,binding signal (RPM ratio (pull-down/input))
1,GATGATTGTTCTCCCAGCTGATGAATTTCGATGGTCGAGTAAACAAATTTTCCTAATCTTTCTGTTCAAGCGCCATCTAC,0.782
2,GATGATTGTTCTCCCAGCTGATGAATTCACCGTTTCGAGTAAACAAATTTTCCTAATCTTTCTGTTCAAGCGCCATCTAC,0.387
3,GATGATTGTTCTCCCAGCTGATGAATTACGGGGATCGAGTAAACAAATTTTCCTAATCTTTCTGTTCAAGCGCCATCTAC,0.327
4,GATGATTGTTCTCCCAGCTGATGAATTTGATCGGTCGAGTAAACAAATTTTCCTAATCTTTCTGTTCAAGCGCCATCTAC,0.32
5,GATGATTGTTCTCCCAGCTGATGAATTGGGGGCATCGAGTAAACAAATTTTCCTAATCTTTCTGTTCAAGCGCCATCTAC,0.87
6,GATGATTGTTCTCCCAGCTGATGAATTAAATGTGTCGAGTAAACAAATTTTCCTAATCTTTCTGTTCAAGCGCCATCTAC,1.18
7,GATGATTGTTCTCCCAGCTGATGAATTCGTGGTATCGAGTAAACAAATTTTCCTAATCTTTCTGTTCAAGCGCCATCTAC,1.14
8,GATGATTGTTCTCCCAGCTGATGAATTCGAACTCTCGAGTAAACAAATTTTCCTAATCTTTCTGTTCAAGCGCCATCTAC,0.359
9,GATGATTGTTCTCCCAGCTGATGAATTGAGAGAGTCGAGTAAACAAATTTTCCTAATCTTTCTGTTCAAGCGCCATCTAC,0.249
10,GATGATTGTTCTCCCAGCTGATGAATTTTCAAAGTCGAGTAAACAAATTTTCCTAATCTTTCTGTTCAAGCGCCATCTAC,0.204
11,GATGATTGTTCTCCCAGCTGATGAATTTACCACTTCGAGTAAACAAATTTTCCTAATCTTTCTGTTCAAGCGCCATCTAC,0.564
12,GATGATTGTTCTCCCAGCTGATGAATTCGGCGTCTCGAGTAAACAAATTTTCCTAATCTTTCTGTTCAAGCGCCATCTAC,3.54
13,GATGATTGTTCTCCCAGCTGATGAATTCGGCGTGTCGAGTAAACAAATTTTCCTAATCTTTCTGTTCAAGCGCCATCTAC,3.73
14,GATGATTGTTCTCCCAGCTGATGAATTAATGGCGTCGAGTAAACAAATTTTCCTAATCTTTCTGTTCAAGCGCCATCTAC,0.871
15,GATGATTGTTCTCCCAGCTGATGAATTCAAGGCATCGAGTAAACAAATTTTCCTAATCTTTCTGTTCAAGCGCCATCTAC,0.603
16,GATGATTGTTCTCCCAGCTGATGAATTTTAGTACTCGAGTAAACAAATTTTCCTAATCTTTCTGTTCAAGCGCCATCTAC,0.491
17,GATGATTGTTCTCCCAGCTGATGAATTATGCCTGTCGAGTAAACAAATTTTCCTAATCTTTCTGTTCAAGCGCCATCTAC,5.87
18,GATGATTGTTCTCCCAGCTGATGAATTGCTAAATTCGAGTAAACAAATTTTCCTAATCTTTCTGTTCAAGCGCCATCTAC,0.592
19,GATGATTGTTCTCCCAGCTGATGAATTACCATCCTCGAGTAAACAAATTTTCCTAATCTTTCTGTTCAAGCGCCATCTAC,0.431
20,GATGATTGTTCTCCCAGCTGATGAATTCAAATGGTCGAGTAAACAAATTTTCCTAATCTTTCTGTTCAAGCGCCATCTAC,0.349
21,GATGATTGTTCTCCCAGCTGATGAATTGTGTGAATCGAGTAAACAAATTTTCCTAATCTTTCTGTTCAAGCGCCATCTAC,0.7

# Source: article PMC12820563
